Laboratory results published in PubChem BioAssay AID743279 (National Center for Advancing Translational Sciences (NCATS), 2014).
The whole screen tested about 360,000 compounds, of which about 17,000 (4.7%) were called active. The inconclusive results got no clear call from the source; some entries with a clear call stand among them for comparison. Rule as the data show it: active = activity change below about -50%; inconclusive = mostly about -30% to -49%; inactive = weaker than that.

assay: qHTS for Inhibitors of Inflammasome Signaling: IL-1-beta AlphaLISA Primary Screen; conditions: THP-1 LPS/ATP IL-1B secretion, 16 h; at 57.5 µM, hits give low values
In short: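 Secreted IL-1B measured by AlphaLISA bead assay after 16 h compound exposure of THP-1 cells; compounds (final up to 57.5 uM) added 1 h before LPS (250 ng/mL) and ATP (1.25 mM) stimulation; lower signal means less secretion.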
% is scaled to controls: 0 for no effect and ±100 for the full control effect.

Row | Compound | activity change
1 | Cc1ccc(S(=O)(=O)N(C)C)cc1NC(=O)c1cc(C(C)(C)C)nn1Cc1ccccc1 | inactive: -10.7%
2 | Cc1ccc(N(CC(=O)NCc2ccco2)C(=O)CNS(=O)(=O)c2ccc(F)cc2)c(C)c1 | active: -94.7%
3 | O=C(CCN1C(=O)c2cccc3cccc(c23)C1=O)N1CCN(Cc2ccc3c(c2)OCO3)CC1 | inconclusive: -31.1%
4 | CSc1ncccc1C(=O)OCC(=O)Nc1nc(C)c(Cl)cc1Cl | inactive: 26.5%
5 | CCCCN(CCCC)CCNC(=O)CN1C(=O)COc2ccc(S(=O)(=O)N3CCC(C)CC3)cc21 | inconclusive: -33.3%
6 | O=C(Nc1ccc(F)cc1)Nc1ccc(N2CCOCC2)c2nonc12 | inconclusive: -39.4%
7 | O=C1c2cccnc2C(Nc2ccc(S(=O)(=O)N3CCCCCC3)cc2)N1Cc1ccccc1 (centres undefined) | inconclusive: -35%
8 | CC(NC(=O)c1cc(-c2ccc3c(c2)OCO3)nc2ccccc12)C(C)(C)C (centres undefined) | inactive: 1.7%
9 | CCCCOc1ccc(C2(C)NC(=O)NC2=O)cc1 (centres undefined) | inactive: 10.7%
10 | O=C1c2ccccc2S(=O)(=O)c2cc(N3CCOCC3)ccc21 | inconclusive: -49.3%
11 | CCCCNc1nc(N)ncc1[N+](=O)[O-] | inconclusive: -34.3%
12 | CCOC(=O)c1nc2cc3n(c(C)c-2c1C)C(C)C(C)=C3C (centres undefined) | active: -61.7%
13 | CCCN(CCO)CCCc1ccccc1 | inactive: -4.07%
14 | COc1cc(N2CCCC2)c(OC)cc1/C=C(/C#N)c1cccc(Br)c1 | inconclusive: -43.6%
15 | Cc1cccc(OCC(=O)Nc2cc(S(=O)(=O)N3CCOCC3)ccc2N2CCCC2)c1C | active: -81.3%
16 | CN(C)c1ccc(C=c2c3ccccc3n3c2c2ccccc2[n+]3C)cc1 | active: -66.4%
17 | O=C(OCCN1C(=O)c2cccc3c(N4CCOCC4)ccc(c23)C1=O)c1ccc(Cl)cc1Cl | inactive: 9.33%
18 | O=C(Nc1ccc(Oc2cccnc2)cc1)c1ccccc1F | inconclusive: -38.4%
19 | Cc1ccccc1Nc1c(-c2ccccc2)nc2ncccn12 | inconclusive: -44.3%
20 | O=c1[nH]c(C2CCN(S(=O)(=O)c3ccc(C(F)(F)F)cc3)CC2)nc2c1nnn2Cc1ccc(F)cc1 | active: -57.4%
21 | Cc1ccc(NC(=O)COc2ccc(S(=O)(=O)N3CCOCC3)cc2)cc1 | inconclusive: -33%

Row | Compound | activity change
22 | O=C(CN1C(=O)NC2(CCCC2)C1=O)OCCOc1cccc(Br)c1 | active: -60.1%
23 | O=C(c1c[nH]c(C(=O)N2CCN(c3ccccc3F)CC2)c1)c1cccc(Cl)c1Cl | inactive: -13.1%
24 | COC(=O)COc1ccc(S(=O)(=O)Nc2ccc3c(c2)OCCO3)cc1Cl | inconclusive: -41.6%
25 | CC(C)(C)c1ccc(C2=CSC3=NCCN23)cc1 | inconclusive: -43%
26 | O=C(c1cc(-c2cccc(O)c2)on1)N1CCN(C(c2ccccc2)c2ccccc2)CC1 | active: -53.2%
27 | COc1ccccc1NC1=NCC(=O)N1Cc1ccccc1 | inactive: 24.8%
28 | O=C(CCSc1nc2ccccc2o1)Nc1ccccc1 | inactive: 17%
29 | CC1(C)Cc2c(sc(NC(=O)Nc3ccccc3)c2C(N)=O)CO1 | inconclusive: -39%
30 | CC1CN(S(=O)(=O)c2cccc(C(=O)Nc3ccccc3N3CCOCC3)c2)CC(C)O1 (centres undefined) | inactive: -1.24%
31 | COc1ccccc1N1CCN(C(=O)C2CCC(CNS(=O)(=O)c3ccc(NC(C)=O)cc3)CC2)CC1 (centres undefined) | inactive: 3%
32 | Cc1noc(C)c1C(=O)Nc1nc(-c2ccc([N+](=O)[O-])cc2)cs1 | inactive: 14%
33 | CC(=O)NC(Cc1cccc(F)c1)C(=O)NC1CCN(c2nnnn2-c2ccccc2)CC1 (centres undefined) | inactive: 8.21%
34 | COc1ccccc1N1CCN(C(=O)c2ccc3nc(-c4ccco4)c(-c4ccco4)nc3c2)CC1 | inconclusive: -37.1%
35 | COC(=O)[C@]12CCCCC=C1N(Cc1ccc(Cl)cc1Cl)C(=O)[C@H](CC(=O)NCc1cccc3ccccc13)C2 | inconclusive: -45.9%
36 | CN(Cc1ccccc1)C(=O)Nc1ccc(Cl)cc1 | inconclusive: -33.4%
37 | CC1CCc2cc(F)cc3c(O)c(C(=O)NCCN(C)C)c(=O)n1c23 (centres undefined) | inconclusive: -37.4%
38 | CC(/C=C1\SC(=O)N(CCCC(=O)O)C1=O)=C\c1ccccc1 | inactive: 0.218%
39 | O=C1C(=NO)CCc2ccccc21 | active: -77.9%
40 | CCN(CC)C(=O)C(Oc1ccc(C)nc1[N+](=O)[O-])c1ccccc1 (centres undefined) | inactive: -10.8%
41 | COc1ccccc1-n1c(SCC(=O)N2CCOCC2)nc(O)c(Cc2ccccc2)c1=O | inactive: 14.7%
42 | CCN(CC)c1ccc(NC(=O)CN2CCN(S(=O)(=O)c3cc(Cl)ccc3OC)CC2)cc1 | inactive: -29.2%

Row | Compound | activity change
43 | Cc1cc(C)n(-c2nc3ccccc3c(=O)n2OCC(=O)N(C)C)n1 | inactive: -1.66%
44 | C/C=C/c1ccc(OCC(=O)N2CCc3cc(OC)c(OC)cc3C2)c(OC)c1 | inconclusive: -33.1%
45 | Fc1ccc2c(c1)C(c1ccncc1)=NNC(c1ccc(Br)cc1)=N2 | inconclusive: -39.1%
46 | CC1(C)CC(=O)C2=C(C1)Nc1ccccc1S2 | inactive: -2.62%
47 | Cc1ccc2nc(-c3ccc(NC(=S)NC4CC(C)(C)NC(C)(C)C4)cc3)sc2c1 | active: -96.8%
48 | Cc1ccc(C2C(C#N)=C3N=C(N)c4ccccc4N3C3=C2C(=O)CCC3)cc1 (centres undefined) | inconclusive: -32.1%
49 | C#CCOCCOCCOCCNc1nc(N2CCN(C(=O)CCCCCCCCCCNC(=O)[C@H]([C@@H](C)CC)n3cc(CCCCCN)nn3)CC2)nc(N2CCN(C(=O)CCCCCCCCCCNC(=O)[C@H](CO)n3cc(CCCCCN)nn3)CC2)n1 | active: -82.8%
50 | COc1ccccc1N(Cc1ccccc1)S(=O)(=O)c1cccc(C(=O)Nc2cc(C)ccn2)c1 | inconclusive: -34.8%
51 | CCOC(=O)C1=C(CSc2nc3ccccc3s2)NC(=O)NC1c1cc(C)ccc1C (centres undefined) | inconclusive: -34.4%
52 | CCN(Cc1ccccc1)c1ccc(/C=C(\C#N)c2ccccn2)cc1 | inactive: -14.2%
53 | COc1ccc(Cl)cc1-c1nc(SCC(=O)NC(C)C(C)C)n[nH]1 (centres undefined) | inactive: 32.5%
54 | O=C(C1CCCN(S(=O)(=O)c2ccc(Cl)cc2)C1)N(Cc1cccs1)C1CC1 (centres undefined) | inconclusive: -31.7%
55 | CCN(CC)S(=O)(=O)c1ccc(C)c(NC(=O)CNc2cccc(S(=O)(=O)N3CCOCC3)c2)c1 | inconclusive: -33.9%
56 | CCN(CC)CCn1c(=S)[nH]c2cc(C(=O)NCCc3ccc(OC)c(OC)c3)ccc2c1=O | inconclusive: -36.3%
57 | O=C(Nc1nc2ccccc2s1)C1CCN(C(=O)c2ccco2)CC1 | inconclusive: -45.2%
58 | Nc1[nH]c(=S)[nH]c(=O)c1-c1ccccc1 | inactive: 2.67%
59 | Cn1ncc2c(Nc3ccc(-c4ccccc4)cc3)ncnc21 | inconclusive: -37.4%
60 | Cc1ccc(C(=O)Nc2ccc(O)cc2C(=O)O)cc1C | inconclusive: -40.4%
61 | CN(C)S(=O)(=O)c1ccc(N2CCCC2)c(C(=O)NC(c2ccccc2)c2ccccc2)c1 | inconclusive: -30.4%
62 | CC(C)Cn1c(=O)[nH]c(=O)c2c(C(F)(F)F)cc(-c3ccccc3)nc21 | inactive: 180%
63 | CC(C)(C)c1ccc(CSc2nnc(-c3ccccn3)n2Cc2ccco2)cc1 | active: -93.7%

Row | Compound | activity change
64 | O=CNc1cc(-c2ccc(C(=O)N3CCOCC3)cc2)cn2c(-c3ccc(F)cc3)cnc12 | inconclusive: -32.4%
65 | CC(=O)Nc1cccc(NC(=O)CSc2ncc(C(=O)Nc3ccc(F)cc3)c(=O)n2C)c1 | active: -99.9%
66 | CSc1ccccc1CNc1nc(NCC2CC2)nc2ccsc12 | active: -106%
67 | COc1ccc(NC(=O)c2cc(-c3ccccn3)nc3ccccc23)c(OC)c1 | inconclusive: -40.4%
68 | O=C(NNC(=S)NC(=O)c1ccc(F)cc1)c1cccnc1 | inactive: 21.8%
69 | Cc1ccc(NC(=O)COC(=O)CCc2c[nH]c3ccccc23)cc1[N+](=O)[O-] | inactive: 12.8%
70 | CC(C)(C)[C@H]1C=C(C(=O)N2CCN(Cc3ccc4c(c3)OCO4)CC2)O[C@@H](OCCCCO)C1 | inconclusive: -31.1%
71 | C/C(CC(=O)Nc1cc(Cl)ccc1Cl)=N\NC(=O)c1ccccc1Br | inactive: 23.7%
72 | C[n+]1ccc(/C=C/c2ccc(Br)cc2)cc1 | inconclusive: -44.5%
73 | Cc1ccc(C(C)C)c(OCC(=O)NCC(c2cccs2)N2CCOCC2)c1 (centres undefined) | inconclusive: -30.7%
74 | CC(=O)Nc1cccc(NC(=O)CSc2nc(=O)n(Cc3ccccn3)c3c2CCC3)c1 | inconclusive: -38.2%
75 | Cc1cccc2cc(C#N)c(NCCNC(=O)NC3CCCCC3)nc12 | inconclusive: -30.9%
76 | O=C(NCc1ccc(F)cc1F)[C@@H]1CCCN1C(=O)[C@@H]1CCCN1C(=O)c1ccccc1 | active: -94.7%
77 | CCOc1ccc(NC(=O)NCc2ccc3c(c2)OCO3)cc1 | inactive: -2.92%
78 | COc1ccc(-c2csc(NC(=O)C3COc4ccccc4O3)n2)cc1OC (centres undefined) | inconclusive: -31.1%
79 | CC(C(=O)Nc1ccon1)N1C(=O)c2ccccc2S1(=O)=O (centres undefined) | inactive: 11.1%
80 | CCCn1c(C(O)c2ccc3c(c2)OCO3)nc2ccccc21 (centres undefined) | inconclusive: -35.2%
81 | O=C(COC(=O)Cc1n[nH]c(=O)c2ccccc12)Nc1cccc(C(F)(F)F)c1 | inactive: 25%
82 | COc1cccc(-c2ccc3nccn3c2)c1 | inactive: 0%
83 | COc1ccc(-c2[nH]ncc2-c2cnn(-c3ccccc3)c2)c(O)c1 | inconclusive: -31.4%
84 | c1cnn(-c2nc(N3CCOCC3)nc(N3CCOCC3)n2)c1 | inconclusive: -45.9%
